# Test results taken from PubChem BioAssay AID686978 (National Center for Advancing Translational Sciences (NCATS), 2013).
# Where “and” joins values, the source holds several entries; their conditions need not be identical. Equal values may be shown once. The whole screen tested about 420,000 compounds, of which about 64,000 (15%) were called active. Inconclusive results, whose numbers are uncertain, are shown with a selection of clear calls. The call rests on the fitted dose curve; in most records, active means well fitted inhibition curve with a large enough effect; inconclusive means small, poorly fitted or top-dose-only effect; inactive means flat fitted curve, though single readings scatter. Where the call is inconclusive, the potency comes from a doubtful curve fit.
# Experiment: qHTS for Inhibitors of human tyrosyl-DNA phosphodiesterase 1 (TDP1): qHTS in cells in absence of CPT; further: nearly all actives have a fitted effect of over 55% in size
# Conditions: DT40 Tdp1-/- hTDP1 cells, no CPT, ATP luminescence, 48 h; activity change, negative = growth inhibition: at 46.2 µM (top of the series)
# How it was run: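 Cells were dispensed at 400 per well, compounds added by pin tool, plates incubated ≥48 hr at 37 °C, then CellTiter-Glo added for 30 min at room temperature before luminescence reading. Line: DT40 Tdp1-/- complemented with hTDP1; camptothecin omitted.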
# On the % scale 0 is the no-effect control and ±100 the full control effect; potency means the concentration at half of the fitted maximal effect; tags describe the fitted curve by direction and shape.
SMILES,"activity change, negative = growth inhibition",Potency
Cc1c(CNC(=O)C2CCC(=O)N(CCc3ccccc3)C2)cnn1C (stereo unspecified),inactive: -12.8%,
CCOc1ccc(CN(C)CC(O)COC(c2ccc(OC)cc2)c2ccc(OC)cc2)cc1 (stereo unspecified),,active: 18.4 µM
O=C(NC1CCCC1)C(c1ccccc1)n1c(CSCCOc2ccccc2)nc2ccccc21 (stereo unspecified),,active: 16.4 µM
COc1ccc(NS(=O)(=O)c2csc(C(=O)N3CCCC3)c2)cc1,,"inconclusive: 2.31 µM [inhibitor, full curve, poor fit]"
COc1ccc2[nH]c(=O)c(CN(CC3CCCO3)C(=S)Nc3ccccc3)cc2c1 (stereo unspecified),,"inconclusive: 29.1 µM [inhibitor, single point]"
O=C1CS/C(=N\N=C\c2ccccc2Cl)N1CC1CC1,,"inconclusive: 29.1 µM [inhibitor, single point]"
Cc1cccc(C(=O)Nc2sc3c(c2C(=O)Nc2ccccc2)CCC3)c1,,"inconclusive: 23.1 µM [inhibitor, single point]"
COc1ccccc1CNS(=O)(=O)c1ccc(-n2cnnn2)c(OC)c1,inactive: -12.8%,
Cc1cccc(C(C)n2nnc3ccccc32)c1O (stereo unspecified),,"inconclusive: 20.6 µM [inhibitor, single point]"
O=[N+]([O-])c1ccc(CN2CCCCCC2)s1,,"inconclusive: 0.082 µM [inhibitor, full curve, poor fit]"
COc1ccc(OC)c(S(=O)(=O)N2CCC(C(=O)N3CCCC3)CC2)c1,inactive: 14.3%,
COc1cc(C(O)c2nc(-c3cccc(C(=O)O)c3)cs2)ccc1F (stereo unspecified),inactive: 3.86%,
COCCNC(=O)C1CCCN(C(=O)c2csc3ccccc23)CC1 (stereo unspecified),inactive: 9.65%,
COc1cc(C=O)cc(OC)c1[N+](=O)[O-],,"inconclusive: 22.4 µM [inhibitor, single point]"
COc1ccc(NC(=O)Cn2c3ccccc3c3nc4n(c(=O)c32)CCS4)cc1OC,,"inconclusive: 18.4 µM [inhibitor, single point]"
CCOc1ccccc1NC(=O)C(=O)NCC(c1cccnc1)N1CCN(c2ccccc2)CC1 (stereo unspecified),,"inconclusive: 29.1 µM [inhibitor, single point]"
C=CCOC(=O)C1=C(C)NC(=S)NC1/C=C/c1ccccc1 (stereo unspecified),,"inconclusive: 16.4 µM [inhibitor, partial curve]"
CCc1cc2c(Nc3ccc(O)cc3)nc(C)nc2s1,inactive: -20.3%,
Cc1oc2c(c1C(=O)NCc1cccnc1)C(=O)c1ccccc1C2=O,,active: 1.03 µM
CS(=O)(=O)Nc1ccc(C2=NN(C(=O)c3ccco3)C(c3cccc(F)c3)C2)cc1 (stereo unspecified),,"inconclusive: 29.1 µM [inhibitor, single point]"
O=C(Nc1ccccc1)N(C1=NCCC1)c1ccc(OC(F)F)cc1,,"inconclusive: 29.1 µM [inhibitor, single point]"
Cc1ccc(C)c(S(=O)(=O)N2CCCOC2CNC(=O)C(=O)NCCCN2CCOCC2)c1 (stereo unspecified),inactive: 7.24%,
COc1ccc(C(=O)COC(=O)c2nn(C)c(=O)c3ccccc23)c(OC)c1,inactive: 5.24%,

SMILES,"activity change, negative = growth inhibition",Potency
CC(C(=O)Nc1ccccc1F)N1CCN(S(=O)(=O)c2ccc(C(F)(F)F)cc2)CC1 (stereo unspecified),,"inconclusive: 16.4 µM [inhibitor, single point]"
c1ccc(-c2nnc(N3CCOCC3)nc2-c2ccccc2)cc1,,"inconclusive: 18.4 µM [inhibitor, single point]"
COc1ccc(OCCn2c(=N)n(CCO)c3ccccc32)cc1,,"inconclusive: 23.1 µM [inhibitor, partial curve, poor fit]"
COc1ccc(C[C@H]2CN3C(=NC[C@@H]3Cc3ccc(O)cc3)N2C[C@H](C)NC(=O)c2ccc(C)c(Br)c2)cc1,,active: 20.6 µM
COc1ccc(C(C(=O)NCc2ccccc2)n2c(=O)c(-c3ccco3)nc3ccccc32)cc1 (stereo unspecified),,"inconclusive: 20.6 µM [inhibitor, single point]"
CC(COc1cccc2ccccc12)CN1CCN(C)CC1 (stereo unspecified),,"inconclusive: 29.1 µM [inhibitor, single point]"
CCCCN(C(=O)c1ccc(C)c(S(=O)(=O)N2CCOCC2)c1)c1c(N)n(CCCC)c(=O)[nH]c1=O,inactive: -10.5%,
Cc1cc(C)c2nc(NNC(=O)c3ccc(S(=O)(=O)N4CCCC(C)C4)cc3)sc2c1 (stereo unspecified),,active: 4.11 µM
O=c1cc(CO)oc2ccccc12,inactive: 3.02%,
Cc1ccc(CNCc2cc(Cl)ccc2O)cc1,,"inconclusive: 20.6 µM [inhibitor, single point]"
COc1cc(/C=C2\C(=N)N3N=C(N4CCOCC4)SC3=NC2=O)ccc1OC(=O)c1ccccc1,inconclusive: -31.8% [inhibitor],
Cc1cccc(Cn2cnc3c(N)c(C)c(C)cc32)c1,inconclusive: -37.7% [inhibitor],
S=C(NCC1CCCO1)Nc1ccc(Cl)c(Cl)c1 (stereo unspecified),,active: 23.1 µM
CCOCCn1cnc2sc(C(=O)NCC(=O)OCC)c(C)c2c1=O,inconclusive: -32.2% [inhibitor],
Cc1ccc(C(=O)NCCSc2ccc(Cl)cc2)cc1S(=O)(=O)Nc1ccccc1,,"inconclusive: 29.1 µM [inhibitor, single point]"
COC(=O)CN1C(=O)N/C(=C/c2ccccc2OC)C1=O,inactive: 10.1%,
CCN(CCCCOC(=O)c1ccc(OC)c(OC)c1)C(C)Cc1ccc(OC)cc1 (stereo unspecified),,"inconclusive: 12.8 µM [inhibitor, single point] and inconclusive: 25.9 µM [inhibitor, single point]"
COc1ccc(C2CC(c3ccccc3)=NN2C(=O)COC(=O)c2cc(S(=O)(=O)N3CCOCC3)ccc2Cl)cc1 (stereo unspecified),,"inconclusive: 11.6 µM [inhibitor, partial curve, poor fit]"
Cc1nc(=O)c(-c2ccccc2)c(C)n1-c1ccccc1,inactive: 20.6%,
CCOC(CNC(=O)Cc1c(C)nc2c(-c3ccccc3)c(C)nn2c1C)OCC,,"inconclusive: 29.1 µM [inhibitor, single point]"
COc1ccc(S(=O)(=O)NCCSCc2ccco2)cc1,,"inconclusive: 23.1 µM [inhibitor, single point]"
CCCN1C2CCCC1CC(NC(=O)c1ccc(C(C)(C)C)cc1)C2 (stereo unspecified),inactive: -25.1%,
CC(=O)c1ccc(OC(C)C)c(CSc2nc(O)cc(=O)[nH]2)c1,,"inconclusive: 25.9 µM [inhibitor, single point]"
